What is called Kd is the free concentration of one partner at which half of the binding sites on the other are occupied at equilibrium, for simple one-to-one binding. Lower therefore signals higher affinity.

In publication doi:10.1101/2025.01.09.632086 (2025) one finds Kd data, which are given here for one molecule.

The target of this assay is T1, HscA (E. coli, UniProt P0A6Z1 1-616).
T1 chain: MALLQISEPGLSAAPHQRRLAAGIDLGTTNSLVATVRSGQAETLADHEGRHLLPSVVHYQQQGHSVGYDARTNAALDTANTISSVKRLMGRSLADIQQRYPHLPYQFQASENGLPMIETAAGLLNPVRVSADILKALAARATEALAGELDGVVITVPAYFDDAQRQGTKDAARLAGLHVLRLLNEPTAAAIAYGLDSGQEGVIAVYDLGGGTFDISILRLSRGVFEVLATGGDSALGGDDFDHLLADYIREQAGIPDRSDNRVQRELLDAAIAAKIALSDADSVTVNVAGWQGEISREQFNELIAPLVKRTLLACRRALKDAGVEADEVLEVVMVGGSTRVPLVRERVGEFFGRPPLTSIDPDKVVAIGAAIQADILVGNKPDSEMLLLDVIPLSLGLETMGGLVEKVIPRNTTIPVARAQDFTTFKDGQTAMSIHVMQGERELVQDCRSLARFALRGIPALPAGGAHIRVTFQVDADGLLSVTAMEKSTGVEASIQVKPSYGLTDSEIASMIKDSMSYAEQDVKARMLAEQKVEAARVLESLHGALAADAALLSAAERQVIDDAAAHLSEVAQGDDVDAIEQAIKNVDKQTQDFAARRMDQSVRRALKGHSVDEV
Nature of the assay: ITC.

B1: IscU WT (natural protein)
chain: MAYSEKVIDHYENPRNVGSFDNNDENVGSGMVGAPACGDVMKLQIKVNDEGIIEDARFKTYGCGSAIASSSLVTEWVKGKSLDEAQAIKNTDIAEELELPPVKIHCSILAEDAIKAAIADYKSKREAK
B1 displayed a Kd of 5.4 µM. This counts as single-digit micromolar.
